# Measured values published in PubChem BioAssay AID336 (DTP/NCI, 2004).
# Inconclusive results and toxic doses are left out. Not every entry of the source has a single result; some have several. Only these are listed. The source may hold further records. Values given together repeat one measurement in other runs, samples, wells, individuals or studies.
# System: BDF1 mice, P388/VCR leukemia ip, median survival T/C
# Assay: NCI In Vivo Anticancer Drug Screen. Data for tumor model P388 Leukemia resistant to Vincristine; NSC 67574 (intraperitoneal) in B6D2F1 (BDF1) mice
# Conditions: endpoint: median survival time, schedule: Q01DX010 (ip), higher = longer survival
# Procedure: The antitumor activity of compounds was measured in mice bearing transplantable tumors. Survival or tumor size were measured and the results are expressed as the measurement made in the treated group (T) divided by the measurement made in the vehicle treated control group (C). The tumor model used in this assay is P388 Leukemia resistant to Vincristine; NSC 67574 (intraperitoneal) in B6D2F1 (BDF1) mice
# [1] = dose: 10.0 mg/kg/injection, vehicle: saline
# [2] = dose: 20.0 mg/kg/injection, vehicle: saline
smiles,measurement,setting,value
O=C(Nc1ccc(C(=O)Nc2ccc(C3=NCCCN3)cc2)cc1)Nc1ccc(C2=NCCCN2)cc1,T/C,"dose: 7.5 mg/kg/injection, vehicle: saline",116 % of control and 161 % of control
N#[N+]c1cnc([O-])[nH]c1=O,T/C,[1],95 % of control and 168 % of control
Nc1nc(=S)c2[nH]cnc2[nH]1,T/C,"dose: 2.5 mg/kg/injection, vehicle: other",107 % of control and 153 % of control
Cc1cc(N(CCCl)CCCl)ccc1N=Nc1ccccc1C(=O)O,T/C,[1],117 % of control and 150 % of control
same,T/C,[2],117 % of control and 162 % of control
N=[N+]=CC(=O)OCC(N)C(=O)O (centres undefined),T/C,"dose: 12.5 mg/kg/injection, vehicle: saline",113 % of control and 150 % of control
C[n+]1ccc(NC(=O)c2ccc(NC(=O)c3cccc(C(=O)Nc4ccc(C(=O)Nc5cc[n+](C)cc5)cc4)c3)cc2)cc1,T/C,[2],123 % of control and 150 % of control
C1CN1c1nc(N2CC2)nc(N2CC2)n1,T/C,"dose: 0.25 mg/kg/injection, vehicle: saline",120 % of control and 152 % of control
O=C(Nc1ccc(NC2=NCCN2)cc1)c1ccc(C(=O)Nc2ccc(NC3=NCCN3)cc2)cc1,T/C,"dose: 16.0 mg/kg/injection, vehicle: saline",111 % of control and 189 % of control
